The text below walks through data of the BET-seq Pho4 binding data (Le et al. 2018).

Some of the results follow. Values were computed here from the reads of four pooled replicates and scatter widely.

The target in this assay is T1, Pho4 (S. cerevisiae) (UniProt P07270).
T1 sequence: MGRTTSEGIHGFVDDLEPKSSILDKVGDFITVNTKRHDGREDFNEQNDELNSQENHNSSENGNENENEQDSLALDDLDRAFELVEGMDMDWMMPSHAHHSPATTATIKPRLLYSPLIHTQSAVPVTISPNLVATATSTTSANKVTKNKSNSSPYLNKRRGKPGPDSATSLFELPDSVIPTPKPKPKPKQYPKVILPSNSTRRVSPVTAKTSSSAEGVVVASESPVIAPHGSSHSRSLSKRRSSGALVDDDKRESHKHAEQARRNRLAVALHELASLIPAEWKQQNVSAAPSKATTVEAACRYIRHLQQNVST
Nature of the assay: relative binding free energy (BET-seq); higher = weaker binding. As to conditions: reference: library average.
On to TGCGGCACGTGAAATG, for which the “relative binding free energy” value amounted to 0.09 kcal/mol.
As to GCTTTCACGTGGTATG, the “relative binding free energy” value is 0.25 kcal/mol.
TTCTGCACGTGGGGCG: the “relative binding free energy” value was -0.18 kcal/mol.
To ATGAGCACGTGAGTTT belongs 0.09 kcal/mol.
To GAATTCACGTGTTGAT belongs 0.4 kcal/mol; to TCGCTCACGTGGGGTG, 0.16 kcal/mol.
To ATGGGCACGTGGCGCT belongs -0.23 kcal/mol; to TTGGGCACGTGCAGGT, -0.16 kcal/mol; to GTGCGCACGTGGGACG, -0.2 kcal/mol.
Take GTTAGCACGTGTTAGG: the “relative binding free energy” value was found to be 0.05 kcal/mol.
To GATATCACGTGGGTCT belongs 0.06 kcal/mol; to GATGTCACGTGGATAG, 0.28 kcal/mol.
With GGGTCCACGTGGGGAG, the “relative binding free energy” value is -0.07 kcal/mol.
To TAAGGCACGTGTCGCT belongs -0.06 kcal/mol.
For the sequence TATTGCACGTGAATCT, the “relative binding free energy” value turned out to be 0.24 kcal/mol.
Consider ATGGACACGTGGAGAG, for which the “relative binding free energy” value was 0.01 kcal/mol.
As to TATTGCACGTGGGGAA, the “relative binding free energy” value is -0.28 kcal/mol.
To TGTCGCACGTGTGGAT belongs 0.05 kcal/mol.
With AGGGTCACGTGAAGAA, the “relative binding free energy” value turned out to be 0.33 kcal/mol.
On to GTGGTCACGTGATATA, for which the “relative binding free energy” value was 0.21 kcal/mol.
In the case of TCAGCCACGTGTGGTG, the “relative binding free energy” value is -0.01 kcal/mol.
Regarding TAAGGCACGTGGTTGC, the “relative binding free energy” value is -0.14 kcal/mol.
To CTTCGCACGTGTGTGT belongs -0.11 kcal/mol.
To TGTTTCACGTGGCCAT belongs 0.23 kcal/mol; to TGGGCCACGTGAGATA, 0.15 kcal/mol.
Take TGGAACACGTGATGGG: the “relative binding free energy” value came to 0.22 kcal/mol.
To AGGCACACGTGGGGGA belongs -0.2 kcal/mol; to TTGCTCACGTGTGTAG, 0.21 kcal/mol; to TTGGTCACGTGGACAG, 0.17 kcal/mol.
In the case of TTCATCACGTGGTTGG, the “relative binding free energy” value amounted to 0.08 kcal/mol.
As to TTAGGCACGTGTGTCA, the “relative binding free energy” value is -0.12 kcal/mol.
To GTAGTCACGTGTAATG belongs 0.11 kcal/mol; to TGTCGCACGTGTGGGT, -0.02 kcal/mol.
To GGACGCACGTGGTGGT belongs -0.07 kcal/mol; to TAGATCACGTGGAGTT, 0.15 kcal/mol; to GAGGGCACGTGTTGTG, -0.07 kcal/mol.
As to TTAATCACGTGCGTTT, the “relative binding free energy” value worked out at 0.12 kcal/mol.
As for GCTCACACGTGGGGTG, the “relative binding free energy” value is -0.01 kcal/mol.
Turning to GGGGTCACGTGTAAAC, the “relative binding free energy” value was 0.25 kcal/mol.
To AGATGCACGTGGTTGT belongs -0.09 kcal/mol; to CAATGCACGTGTGTAG, 0.12 kcal/mol; to AAAGACACGTGAGGGG, 0.25 kcal/mol.
To TAGGGCACGTGACTGC belongs 0.04 kcal/mol.
With AGTACCACGTGTTGGG, the “relative binding free energy” value was -0.05 kcal/mol.
To TAAGACACGTGGGAAG belongs 0.01 kcal/mol; to CTGTACACGTGTTCGG, 0 kcal/mol.
To TTTCCCACGTGGTGGG belongs -0.16 kcal/mol; to TTTTGCACGTGGGACG, 0.06 kcal/mol; to AAAGTCACGTGGTGCG, -0.02 kcal/mol.
Turning to TGTGACACGTGGGCGG, the “relative binding free energy” value is -0.23 kcal/mol.
To TTGGACACGTGATCTG belongs 0.08 kcal/mol; to TTCGGCACGTGGTGAG, -0.07 kcal/mol.
Regarding TGGTGCACGTGCGAGC, the “relative binding free energy” value was 0.03 kcal/mol.
To ACGGTCACGTGGAGGG belongs 0.02 kcal/mol; to ATGGTCACGTGGGGCC, 0.03 kcal/mol; to TGCTTCACGTGGTTGG, 0.24 kcal/mol.
To TAGAGCACGTGGATGG belongs -0.05 kcal/mol.
As to TGGTGCACGTGCGTCG, the “relative binding free energy” value is -0.16 kcal/mol.
To TAGGACACGTGTATCG belongs 0.09 kcal/mol.
To TGACTCACGTGGAGGT belongs 0.1 kcal/mol.
To TGCAACACGTGTTTTT belongs 0.12 kcal/mol; to AGAGGCACGTGCCGTG, -0.17 kcal/mol.
Take ATTGGCACGTGGGTGA: the “relative binding free energy” value is -0.2 kcal/mol.
To TGAGACACGTGCGGAG belongs -0.04 kcal/mol; to TTTATCACGTGTGGAC, 0.3 kcal/mol; to TTCATCACGTGTGGGA, 0.2 kcal/mol.
To GTTTACACGTGTGAGC belongs 0.2 kcal/mol; to GGGTACACGTGCGGGT, 0.07 kcal/mol; to CACAGCACGTGTGGTG, -0.03 kcal/mol.
On to TAAATCACGTGGTTGG, for which the “relative binding free energy” value was 0.09 kcal/mol.
To TAACGCACGTGGTTGG belongs -0.21 kcal/mol; to CGGCTCACGTGGAGTG, 0.2 kcal/mol.
To GATGGCACGTGATATT belongs 0.18 kcal/mol; to GCTGTCACGTGCTGGA, 0.15 kcal/mol.
On to AGGTACACGTGTTGGC, for which the “relative binding free energy” value came out at 0.07 kcal/mol.
Turning to CTTTTCACGTGTAGTG, the “relative binding free energy” value came to 0.12 kcal/mol.
To GGGGGCACGTGCTAAT belongs -0.12 kcal/mol; to TCGTACACGTGGGGGT, -0.06 kcal/mol.
To TTTTACACGTGGCTAT belongs 0.07 kcal/mol; to GGTTGCACGTGTGAAG, 0.19 kcal/mol.
To CTGTTCACGTGTCGGG belongs 0.1 kcal/mol.
In the case of ATAATCACGTGCAGGT, the “relative binding free energy” value was 0.11 kcal/mol.
To ATAGTCACGTGGGTAC belongs -0.03 kcal/mol; to GTAGACACGTGTTCAG, 0.12 kcal/mol.
For the sequence GAGGTCACGTGGAGTC, the “relative binding free energy” value was 0.21 kcal/mol.
Turning to GATAGCACGTGTAGGC, the “relative binding free energy” value turned out to be 0.1 kcal/mol.
Turning to GAAAACACGTGGGAGT, the “relative binding free energy” value is 0.12 kcal/mol.
Regarding TGAGACACGTGTTATT, the “relative binding free energy” value was -0.04 kcal/mol.
Consider AGTTGCACGTGATTTT, for which the “relative binding free energy” value came out at 0.16 kcal/mol.
Take GAGGGCACGTGATGGA: the “relative binding free energy” value was 0.04 kcal/mol.
Consider TATTTCACGTGATTGT, for which the “relative binding free energy” value came out at 0.43 kcal/mol.
To GAAGTCACGTGTGGAT belongs 0.12 kcal/mol; to GGATACACGTGGTAGT, 0.07 kcal/mol; to GCGAGCACGTGTGGTG, -0.04 kcal/mol.
Take AAGAGCACGTGGTATT: the “relative binding free energy” value is -0.21 kcal/mol.
Turning to ATTATCACGTGACTGG, the “relative binding free energy” value was found to be 0.35 kcal/mol.
To TGGACCACGTGTTTGT belongs 0.04 kcal/mol.
Consider GGGTGCACGTGATAGT, for which the “relative binding free energy” value worked out at 0.19 kcal/mol.
To ATATGCACGTGGGCGC belongs -0.07 kcal/mol.
To GGATGCACGTGTGAAA belongs 0.03 kcal/mol; to GCTAGCACGTGGGAAG, 0.04 kcal/mol; to GGTGTCACGTGTTATC, -0.01 kcal/mol.
To GATTTCACGTGTCTAG belongs 0.32 kcal/mol; to TAGAGCACGTGTAAAT, 0.03 kcal/mol; to AATGTCACGTGACGGG, 0.18 kcal/mol.
In the case of CTTGGCACGTGGGCGT, the “relative binding free energy” value is -0.3 kcal/mol.
To GGGGCCACGTGGGAGT belongs -0.2 kcal/mol; to CGTAGCACGTGGAATT, 0.07 kcal/mol; to ATTCGCACGTGTTGGG, -0.09 kcal/mol.
Regarding GATGCCACGTGCGGTT, the “relative binding free energy” value came out at 0.06 kcal/mol.
To CGTCTCACGTGGGGTG belongs -0.11 kcal/mol.
As to GTAGCCACGTGGAGTA, the “relative binding free energy” value is 0 kcal/mol.
To CGTTACACGTGAGGTG belongs 0.22 kcal/mol; to TGTGGCACGTGGCGGC, -0.28 kcal/mol; to TGGTGCACGTGTACAG, 0.01 kcal/mol.
